{
  "source": "PubChem BioAssay AID624417",
  "about": "(National Center for Advancing Translational Sciences (NCATS), 2012)",
  "note": "Screen size: about 410,000 compounds; about 6,400 (1.6%) were called active. Inconclusive means that the source gave no clear call. Such entries were picked first, then a sample of the others. The call rests on the fitted dose curve; in most records, active means well fitted inhibition curve with a large enough effect; inconclusive means small, poorly fitted or top-dose-only effect; inactive means no such curve, though single readings can be large or run the other way. No potency is given beside an inconclusive call; the fits are too rough. On the % scale 0 is the no-effect control and ±100 the full control effect; potency means the concentration at half of the fitted maximal effect; tags describe the fitted curve by direction and shape.",
  "data": [
    {"target": "Glucagon-like peptide 1 receptor (Homo sapiens) (UniProt P43220)", "sequence (P43220 whole entry, looked up)": "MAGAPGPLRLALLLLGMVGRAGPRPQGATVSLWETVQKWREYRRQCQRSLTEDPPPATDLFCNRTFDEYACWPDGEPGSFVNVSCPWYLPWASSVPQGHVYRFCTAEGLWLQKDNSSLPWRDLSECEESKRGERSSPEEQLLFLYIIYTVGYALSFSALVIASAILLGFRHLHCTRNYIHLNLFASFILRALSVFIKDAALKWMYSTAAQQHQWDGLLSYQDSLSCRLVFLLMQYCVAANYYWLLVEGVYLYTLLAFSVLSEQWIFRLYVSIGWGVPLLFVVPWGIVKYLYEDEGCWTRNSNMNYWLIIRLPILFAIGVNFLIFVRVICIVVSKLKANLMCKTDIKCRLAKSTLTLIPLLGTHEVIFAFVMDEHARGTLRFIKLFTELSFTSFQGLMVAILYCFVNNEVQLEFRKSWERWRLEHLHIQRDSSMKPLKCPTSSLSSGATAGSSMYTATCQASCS", "test": "qHTS of GLP-1 Receptor Inverse Agonists (Inhibition Mode); further: nearly all actives have a fitted effect of over 55% in size", "settings": "HEK293 GLP-1R CRE-luciferase, luminescence, 24 h, GLP-1R form is constitutively active; activity change, negative = inhibition: at 38.3 µM (top of the series) unless noted", "procedure,_shortened": "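Luminescence readout: a drop in cAMP-driven luciferase signal flags inverse agonism at a constitutively active GLP-1R stably expressed in HEK293. Compound exposure lasted 24 hr at 37 deg C, 5% CO2.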", "values": [
      {"smiles": "CC/C(O)=C(/C#N)c1nnc2n1CCCCC2", "activity change, negative = inhibition": "inactive: 9.99%"},
      {"smiles": "COc1ccc(N2CCN(CC(=O)N3c4ccccc4CC3C)CC2)cc1", "note": "(configuration not stated)", "Potency": "inconclusive [inhibitor, partial curve, poor fit]"},
      {"smiles": "CC(C)=CCc1c([C@@H]2CCc3ccc(O)cc3O2)cc2c(c1O)OC(C)(C)C=C2", "Potency": "inconclusive [inhibitor, single point]"},
      {"smiles": "Cc1cc(OCCn2c(C3CC(=O)N(Cc4ccc(F)cc4)C3)nc3ccccc32)ccc1Cl", "note": "(configuration not stated)", "Potency": "inconclusive [inhibitor, single point]"},
      {"smiles": "CCCn1cc(S(=O)(=O)c2cccc(Cl)c2)c(=O)c2cc(F)c(N3CCN(CC)CC3)cc21", "activity change, negative = inhibition": "inactive: 10.6%"},
      {"smiles": "CC(NCCN(C)C)C1CCC2C3CCc4cc(O)ccc4C3CCC12C", "note": "(configuration not stated)", "Potency": "inconclusive [inhibitor, partial curve, poor fit]"},
      {"smiles": "COCCNC(=S)N1CCC(Cc2ccccc2)CC1", "Potency": "inconclusive [inhibitor, single point]"},
      {"smiles": "Cc1ccc(N(C(=O)Nc2ccccc2)C2=NCCC2)cc1", "Potency": "inconclusive [inhibitor, single point]"},
      {"smiles": "O=C(NCc1ccco1)c1ccc(Cl)c(S(=O)(=O)N2CCc3ccccc32)c1", "Potency": "inconclusive [inhibitor, single point]"},
      {"smiles": "Cc1nn(-c2nc3ccccc3[nH]2)c(N)c1-c1ccccc1", "Potency": "inconclusive [inhibitor, single point]"},
      {"smiles": "COc1ccc2c(C)cc(=O)oc2c1", "activity change, negative = inhibition": "inactive: 10.4%"},
      {"smiles": "Cc1ccc(C(=O)NNC(=O)C2CCN(Cc3ccc(Cl)c(Cl)c3)CC2)cc1", "activity change, negative = inhibition": "inactive: -1.89%"},
      {"smiles": "Cc1cc2n(n1)SC(Nc1ccc(F)c(Cl)c1)N2", "note": "(configuration not stated)", "activity change, negative = inhibition": "inactive: 0%"},
      {"smiles": "Cc1ccc(Cl)cc1N1CCN(C(=O)C2CCC(=O)N(C3CCCCCC3)C2)CC1", "note": "(configuration not stated)", "Potency": "inconclusive [inhibitor, full curve, poor fit]"},
      {"smiles": "O=C(Nc1cccc(S(=O)(=O)N2CCCC2)c1)c1cccc(OC(F)F)c1", "Potency": "inconclusive [inhibitor, single point]"},
      {"smiles": "CCOC(=O)c1cnc(-n2nc(C)cc2C)nc1NCCc1ccccc1", "Potency": "inconclusive [inhibitor, partial curve, poor fit]"},
      {"smiles": "Cc1ccc(C)c(N2CCN(CCCNC(=O)Cn3c(-c4cccs4)cc4ccccc43)CC2)c1", "Potency": "inconclusive [inhibitor, partial curve, poor fit]"},
      {"smiles": "OCC1(CCOc2ccccc2)CCN(Cc2cn[nH]c2-c2ccccc2)CC1", "Potency": "inconclusive [inhibitor, partial curve, poor fit]"},
      {"smiles": "CCn1nc(NC(=O)c2cccs2)c2cc3ccccc3nc21", "Potency": "inconclusive [inhibitor, single point]"},
      {"smiles": "CC(O)(c1ccccc1)C(c1ccccc1)C1CCCCN1", "note": "(configuration not stated)", "activity change, negative = inhibition": "inactive: -13.5%"},
      {"smiles": "COc1ccc(C(NC(=O)C2CCCCC2)c2c(O)ccc3ccccc23)cc1", "note": "(configuration not stated)", "Potency": "inconclusive [inhibitor, partial curve]"},
      {"smiles": "O=C(NCCC1CCCCN1S(=O)(=O)c1cccs1)C(=O)Nc1ccc(F)cc1", "note": "(configuration not stated)", "Potency": "inconclusive [inhibitor, partial curve, poor fit]"},
      {"smiles": "O=C1c2ccccc2C(=O)c2[nH]c(=O)[nH]c21", "Potency": "inconclusive [inhibitor, single point]"},
      {"smiles": "CC#CC#Cc1cccc(=O)o1", "Potency": "inconclusive [inhibitor, single point]"},
      {"smiles": "CCN(C(=O)COC(=O)c1n[nH]c2ccccc12)c1ccccc1", "Potency": "inconclusive [inhibitor, single point]"},
      {"smiles": "CCN(CC)C(=O)CSc1ncnc2c1cnn2-c1ccccc1", "Potency": "inconclusive [inhibitor, single point]"},
      {"smiles": "CC(C)N(c1ccccc1)c1ccc(NC(=O)CCl)cc1", "Potency": "inconclusive [inhibitor, single point]"},
      {"smiles": "COc1ccccc1-n1cc(-c2ccc(C)cc2)[nH]c1=S", "activity change, negative = inhibition": "inconclusive: -46.2% [inhibitor]"},
      {"smiles": "COc1ccc(C(=O)CC(=O)Nc2ccc([N+](=O)[O-])cc2)cc1", "Potency": "inconclusive [inhibitor, single point]"},
      {"smiles": "COc1cccc(NC(=O)C2CC(=O)N(Cc3ccc(C)cc3)C2)c1", "note": "(configuration not stated)", "Potency": "inconclusive [inhibitor, single point]"},
      {"smiles": "O=C(CN(c1ccc(Cl)c(C(F)(F)F)c1)S(=O)(=O)c1ccccc1)N1CCc2ccccc2C1", "Potency": "inconclusive [inhibitor, partial curve, poor fit]"},
      {"smiles": "COc1c(Cl)cccc1-c1cn2ccccc2n1", "activity change, negative = inhibition": "inactive: 32.1%"},
      {"smiles": "O=C(c1ccccc1NS(=O)(=O)c1ccc(F)cc1F)N1CCCCC1", "Potency": "inconclusive [inhibitor, full curve]"},
      {"smiles": "COc1ccccc1CCNC(=O)CSc1nnc2ccc(-c3ccncc3)nn12", "activity change, negative = inhibition": "inactive: 63%"},
      {"smiles": "COc1ccc(-c2cc3c(=O)n(CC(=O)NCCCN4CCC(Cc5ccccc5)CC4)ncn3n2)cc1", "Potency": "active: 2.24 µM"},
      {"smiles": "Cc1cccc(N(C(=O)c2snc(C(N)=O)c2N)C(C(=O)NCC2CCCO2)c2ccc(N(C)C)cc2)c1C", "note": "(configuration not stated)", "activity change, negative = inhibition": "inactive: 23.8%"},
      {"smiles": "COCCOc1cc(Nc2nnc(C(F)(F)F)s2)c(Cl)cc1Cl", "Potency": "inconclusive [inhibitor, partial curve]"},
      {"smiles": "CC(=O)c1ccc(Sc2ccccc2)c([N+](=O)[O-])c1", "activity change, negative = inhibition": "inactive: 2.87%"},
      {"smiles": "CCC(C(=O)Nc1ccsc1C(=O)OC)c1ccccc1", "note": "(configuration not stated)", "Potency": "inconclusive [inhibitor, single point]"},
      {"smiles": "CC(=O)c1c(C)nc2ccccc2c1N", "activity change, negative = inhibition": "inactive: -0.533%"},
      {"smiles": "CC(=O)c1ccc(C(=O)N(CCCN(C)C)c2nc3c(C)c(C)ccc3s2)cc1", "Potency": "inconclusive [inhibitor, single point]"},
      {"smiles": "COc1cc(C)c(Cl)c(C)c1S(=O)(=O)NCc1ccc2c(c1)OCO2", "Potency": "inconclusive [inhibitor, full curve, poor fit]"},
      {"smiles": "CCCN(CCC)S(=O)(=O)c1ccc(C(=O)NNc2nc(-c3ccccc3)c3cc(Br)ccc3n2)cc1", "Potency": "inconclusive [inhibitor, full curve, poor fit]"},
      {"smiles": "COc1ccc(N2Cc3cccc(C(=O)Nc4ccc(C(C)C)cc4)c3C2=O)cc1", "activity change, negative = inhibition": "inactive: -2.66%"},
      {"smiles": "O=C(Nc1cc(S(=O)(=O)N2CCCCC2)ccc1N1CCOCC1)c1ccc(C(F)(F)F)cc1", "Potency": "inconclusive [inhibitor, single point]"},
      {"smiles": "Cc1onc(-c2c(Cl)cccc2Cl)c1/C(N)=N/OC(=O)C(C)(C)C", "Potency": "inconclusive [inhibitor, single point]"},
      {"smiles": "O=C(CCc1ccc(S(=O)(=O)NC2CCCCC2)cc1)NCc1ccccc1", "Potency": "inconclusive [inhibitor, single point]"},
      {"smiles": "O=C(NC1CC1)C1CCN(c2nc3ccccc3s2)CC1", "activity change, negative = inhibition": "inactive: -9.35%"},
      {"smiles": "CCCNC(=O)c1ccc2c(=O)c(O)c(-c3cccc(Br)c3)[nH]c2c1", "Potency": "inconclusive [inhibitor, single point]"},
      {"smiles": "Cc1cccc(N2CCN(C(=O)C3CCCCC3)CC2)c1C", "Potency": "active: 10 µM"},
      {"smiles": "Cc1ccc(OCCn2c(CNc3cccc(C)c3)nc3ccccc32)cc1", "Potency": "inconclusive [inhibitor, single point]"},
      {"smiles": "COc1ccc(C(=O)COC(=O)c2cccnc2Cl)c(OC)c1", "activity change, negative = inhibition": "inactive: 18.5%"},
      {"smiles": "O=C(c1ccc(COc2ccccc2Br)cc1)N1CCCCCC1", "Potency": "inconclusive [inhibitor, partial curve, poor fit]"},
      {"smiles": "N#Cc1cc2c(nc1SCC(O)CS(=O)(=O)Cc1ccc(Cl)cc1)CCCC2", "note": "(configuration not stated)", "Potency": "inconclusive [inhibitor, single point]"},
      {"smiles": "Cn1ccc2c(N3c4ccccc4CCc4ccccc43)cc3c(c21)C1CCC3C1", "note": "(configuration not stated)", "Potency": "inconclusive [inhibitor, single point]"},
      {"smiles": "COCc1nc2ccccc2n1CCCOc1ccccc1", "Potency": "inconclusive [inhibitor, partial curve, poor fit]"},
      {"smiles": "Cc1ccc(C)c(N2CCN(C(=O)c3ccc(CS(=O)Cc4cccc(Cl)c4)o3)CC2)c1", "note": "(configuration not stated)", "Potency": "inconclusive [inhibitor, partial curve, poor fit]"},
      {"smiles": "CC1(C)CC(=O)/C(=C\\c2cccc([N+](=O)[O-])c2)C(C)(C)N1", "Potency": "inconclusive [inhibitor, single point]"},
      {"smiles": "Cc1ccc(NC(=S)NC(NC(=O)c2ccco2)C(Cl)(Cl)Cl)cc1", "note": "(configuration not stated)", "Potency": "inconclusive [inhibitor, full curve, poor fit]"},
      {"smiles": "CC(CC(=O)c1ccc(F)cc1)N1CCN(c2ccccc2)CC1", "note": "(configuration not stated)", "Potency": "inconclusive [inhibitor, full curve, poor fit]"},
      {"smiles": "Cc1cc(C)c(C#N)c(SCc2ccccc2)n1", "Potency": "inconclusive [inhibitor, single point]"},
      {"smiles": "Cc1cc(C)cc(N(CC(=O)N2CCN(c3ccccc3)CC2)S(=O)(=O)c2c(C)noc2C)c1", "Potency": "inconclusive [inhibitor, partial curve, poor fit]"},
      {"smiles": "COc1ccc2c(c1)Cc1sc(NC(=O)c3ccccc3Br)nc1-2", "Potency": "inconclusive [inhibitor, single point]"},
      {"smiles": "Cc1cccc(/C=N/Nc2nncc3ccccc23)c1", "Potency": "inconclusive [inhibitor, single point]"},
      {"smiles": "CCn1c(SCC(=O)Nc2ccc(C)cc2Br)nnc1-c1nonc1NC(C)=O", "activity change, negative = inhibition": "inactive: 3.65%"},
      {"smiles": "C[C@H](CO)N1C[C@H](C)[C@@H](CN(C)Cc2ccc3c(c2)OCCN3C)OCc2cnnn2CCCC1=O", "activity change, negative = inhibition": "inactive: 20.7%"},
      {"smiles": "CCc1nc2c(OCc3ccc(OC)cc3)cccn2c1N(C)C(=O)c1ccc(OC)cc1", "activity change, negative = inhibition": "inactive: 0.681%"}
    ]}
  ]
}
